Publication PMC4336329 (PLoS ONE, 2015)
In all, about 310,000 compounds went through this assay and about 2,200 (0.71%) showed an effect of 50% or more. Effects have a minus sign here. Some of the results follow.

Biological target: human ether-à-go-go-related gene (hERG) potassium channel (human, UniProt Q12809)
Assay: primary screen, population patch clamp on CHO cells stably expressing hERG

Sequence of human ether-à-go-go-related gene (hERG) potassium channel (Q12809 whole entry, looked up): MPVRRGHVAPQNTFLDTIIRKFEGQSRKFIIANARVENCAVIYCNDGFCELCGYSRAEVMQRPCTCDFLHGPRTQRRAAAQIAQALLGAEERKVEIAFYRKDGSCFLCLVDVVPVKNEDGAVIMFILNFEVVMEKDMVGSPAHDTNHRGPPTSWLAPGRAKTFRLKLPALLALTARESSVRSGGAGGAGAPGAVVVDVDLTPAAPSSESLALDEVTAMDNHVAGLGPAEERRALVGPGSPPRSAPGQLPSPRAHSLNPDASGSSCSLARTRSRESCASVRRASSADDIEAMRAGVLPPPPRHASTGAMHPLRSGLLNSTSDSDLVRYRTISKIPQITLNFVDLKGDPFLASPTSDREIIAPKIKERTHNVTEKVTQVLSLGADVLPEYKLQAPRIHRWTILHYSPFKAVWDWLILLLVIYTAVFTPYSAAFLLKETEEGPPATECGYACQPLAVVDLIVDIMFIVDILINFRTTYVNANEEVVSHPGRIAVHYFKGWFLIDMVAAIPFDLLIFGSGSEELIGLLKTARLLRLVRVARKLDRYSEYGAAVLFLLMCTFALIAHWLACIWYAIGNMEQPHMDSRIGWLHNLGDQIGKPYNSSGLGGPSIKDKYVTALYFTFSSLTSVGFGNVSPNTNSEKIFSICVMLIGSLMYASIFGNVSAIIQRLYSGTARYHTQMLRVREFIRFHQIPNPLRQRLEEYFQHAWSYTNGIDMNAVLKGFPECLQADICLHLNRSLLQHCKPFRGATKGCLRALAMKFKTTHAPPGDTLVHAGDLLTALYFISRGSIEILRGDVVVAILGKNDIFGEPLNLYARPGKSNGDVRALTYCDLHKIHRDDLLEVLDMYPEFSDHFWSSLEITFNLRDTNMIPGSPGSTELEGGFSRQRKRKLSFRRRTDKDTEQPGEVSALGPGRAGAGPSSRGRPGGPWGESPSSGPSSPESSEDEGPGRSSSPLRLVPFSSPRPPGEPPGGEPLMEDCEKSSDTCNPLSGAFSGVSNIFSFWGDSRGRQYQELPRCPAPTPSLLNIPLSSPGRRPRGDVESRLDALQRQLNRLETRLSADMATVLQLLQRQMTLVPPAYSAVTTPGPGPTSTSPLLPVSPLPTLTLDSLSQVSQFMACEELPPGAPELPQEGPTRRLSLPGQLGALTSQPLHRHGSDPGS

Compared with Cc1ccc(C(=O)COc2ccc3c(C)cc(=O)oc3c2)cc1, COc1cc(/C=N/NC(=O)COc2cc(C)cc(C)c2)ccc1OS(=O)(=O)c1ccc(C)cc1 is higher in “hERG current change (%, negative = inhibition) at 1uM” value: 7.38% for the first, 14.1% for the second.

Compared with O=C(NC1CCN(C(=S)Nc2ccccc2)CC1)C1CCCCC1, O=C(NC1CCCCCC1)C1CC(=O)N(c2ccc(Cl)cc2)C1 (centres unmarked) is higher in “hERG current change (%, negative = inhibition) at 1uM” value: 4.03% for the first, 11.2% for the second.

Going from Cc1cc(N2CCN(c3ccccc3)CC2)n2nnnc2n1 to COCCn1c(=O)[nH]c2cc(C(=O)N3CCN(c4ccc(OC)cc4)CC3)ccc2c1=O, the “hERG current change (%, negative = inhibition) at 1uM” value falls from -1.41% to -2.05%.

Going from CC(=O)Nc1ccn(Cc2c(F)cccc2Cl)n1 to Cc1onc(-c2c(F)cccc2Cl)c1C(=O)Nc1cccc2nsnc12, the “hERG current change (%, negative = inhibition) at 1uM” value falls from 13% to -18%.

First: Cc1ccc(NC(=O)CSc2ncn(-c3ccccc3)n2)cc1C
Second: CSc1ncnc2c1ccn2CC(=O)Nc1ccc(C)c(C)c1
The “hERG current change (%, negative = inhibition) at 1uM” value of the first is lower: 0.136% for the first, 8.84% for the second.

Compared with CC(C)NC(=O)c1cccc(C(F)(F)F)c1, CC(C)NC(=O)c1ccc(C(C)C)cc1 is higher in “hERG current change (%, negative = inhibition) at 1uM” value: -1.91% for the first, 10.1% for the second.

Compared with CC(NC(=O)COC(=O)CNC(=O)c1ccc(-c2ccccc2)cc1)c1ccccc1 (centres unmarked), O=C(CNC(=O)c1ccccc1)OCc1nnc(-c2ccc(Cl)cc2)o1 is lower in “hERG current change (%, negative = inhibition) at 1uM” value: 12.4% for the first, -0.318% for the second.

Going from O=C(O)c1ccc(Cl)c(S(=O)(=O)N2CCCC2)c1 to COc1cc2c(cc1OC)C(C)N(C(=O)c1ccc(Cl)c(S(=O)(=O)N3CCCCC3)c1)CC2 (centres unmarked), the “hERG current change (%, negative = inhibition) at 1uM” value falls from 11.8% to 9.37%.

Going from COc1ccc(CC(=O)NC2CCCCCC2)c(OC)c1 to CCOC(=O)C1CCN(c2ncnc3c2[nH]c2cccc(OC)c23)CC1, the “hERG current change (%, negative = inhibition) at 1uM” value falls from 2.36% to -16.9%.

Compared with CCc1ccc(CN(C)C(=O)c2ccc3c(c2)OCCO3)cc1, CCN(CC(=O)Nc1ccc(NC(C)=O)cc1)C(=O)c1ccc2c(c1)OCO2 is lower in “hERG current change (%, negative = inhibition) at 1uM” value: 14.6% for the first, 8.97% for the second.

Going from CN1CCN(Cc2ccc(OC(F)(F)F)cc2)CC1 to CCCCOc1ccc(C(O)(CC)CCN2CCOCC2)cc1 (centres unmarked), the “hERG current change (%, negative = inhibition) at 1uM” value rises from -14% to 11.2%.

First: CCC(NC(=O)c1cc(COc2ccc(Cl)cc2OC)on1)c1ccncc1 (centres unmarked)
Second: CCn1c(SCC(=O)Nc2cccc(OC)c2)nnc1-c1ccc(Cl)cc1
The “hERG current change (%, negative = inhibition) at 1uM” value of the first is lower: 1.21% for the first, 4.42% for the second.

First: CCN(CC)c1ccc(C(=O)OCC(=O)NCC2CCCO2)cc1 (centres unmarked)
Second: COc1ccccc1NCCC(=O)OCC(=O)NCc1ccco1
The “hERG current change (%, negative = inhibition) at 1uM” value of the first is lower: -6.68% for the first, 19.6% for the second.

Going from COC(=O)Nc1nc2ccc(Br)cc2s1 to COc1ccc(C(=O)O)cc1NS(=O)(=O)c1cccc2nsnc12, the “hERG current change (%, negative = inhibition) at 1uM” value falls from 18.1% to 8.43%.

First: O=C(NNC(=O)c1ccc[nH]1)c1cc(Cl)cc(Cl)c1
Second: NC(=O)c1cnn(-c2cccc(Cl)c2)c1N
The “hERG current change (%, negative = inhibition) at 1uM” value of the first is lower: 11.4% for the first, 12.3% for the second.

Going from C=CCC1(C#N)C(=S)NC(C)=C(C(=O)OCC)C1c1ccccc1 (centres unmarked) to C=CCOc1ccc(C2CC(C)=NN2c2ccccc2)cc1 (centres unmarked), the “hERG current change (%, negative = inhibition) at 1uM” value falls from 9.85% to 9.37%.

Compared with O=C(Nc1nnc(CCc2ccccc2)s1)c1cccs1, CCc1nnc(NC(=O)CCC(=O)N2CCN(CCc3ccccc3)CC2)s1 is lower in “hERG current change (%, negative = inhibition) at 1uM” value: 15.2% for the first, 7.94% for the second.

Compared with COc1cc(OC)cc(C(=O)N[C@H](C(=O)OCC(=O)Nc2sccc2C#N)C(C)C)c1, COc1ccc(C(=O)C2CN(C)CC2C(=O)c2ccc(OC)cc2)cc1 (centres unmarked) is lower in “hERG current change (%, negative = inhibition) at 1uM” value: 8.56% for the first, -31.1% for the second.

First: Br.Cc1ccnc(Nc2nc(-c3ccccc3)cs2)c1
Second: Cc1ccsc1/C=N/n1c(-c2cc(-c3ccccc3)n[nH]2)n[nH]c1=S
The “hERG current change (%, negative = inhibition) at 1uM” value of the first is lower: 1.41% for the first, 17.7% for the second.

Going from O=C(Nc1cccc(-n2cnnn2)c1)c1ccc(OC(F)(F)F)cc1 to COc1cccc(-n2nnc3c(=O)n(Cc4ccc(Cl)cc4)cnc32)c1, the “hERG current change (%, negative = inhibition) at 1uM” value rises from -8.05% to -1.22%.

Going from O=C(OCc1nnc(-c2ccccc2)o1)C1CC(=O)N(c2ccccc2)C1 (centres unmarked) to CCn1c(NC(=O)c2ccccc2)c(-c2cccs2)c(=O)c2ccccc21, the “hERG current change (%, negative = inhibition) at 1uM” value falls from 5.84% to 3.17%.

Compared with CC(=O)Nc1cccc(C(=O)NCC2(N3CCCCC3)CCCCC2)c1, O=C(Nc1cc(Cl)ccc1Cl)N1CCCC1 is lower in “hERG current change (%, negative = inhibition) at 1uM” value: 19.9% for the first, 3.59% for the second.

First: COc1ccccc1CNc1cc(CSc2ccc(Cl)cc2)nc(C)n1
Second: COc1ccccc1C(=O)C1Nc2ccccc2-c2nnc(SC)nc2O1 (centres unmarked)
The “hERG current change (%, negative = inhibition) at 1uM” value of the first is higher: 15.3% for the first, 5.37% for the second.

Compared with COc1ccc(NC2CC(=O)N(c3cccc(C)c3)C2=O)cc1 (centres unmarked), COc1ccc(Nc2nc(=O)[nH]nc2C)cc1 is higher in “hERG current change (%, negative = inhibition) at 1uM” value: 10% for the first, 17.6% for the second.

Going from Cc1ccc(C(=O)NCCNS(=O)(=O)c2ccccc2)cn1 to O=C(NCc1ccc(F)cc1)C1CCC(CNS(=O)(=O)c2cccs2)CC1 (centres unmarked), the “hERG current change (%, negative = inhibition) at 1uM” value rises from 5.78% to 6.48%.

First: O=C(O/N=C1/CCCc2occc21)c1ccc(F)cc1
Second: CCOC(=O)c1c(NC(=O)c2ccccc2Br)sc2c1CCc1ccccc1-2
The “hERG current change (%, negative = inhibition) at 1uM” value of the first is lower: 11.8% for the first, 22.8% for the second.

Going from C/C(=N/NC(=O)CNC(=O)C1COc2ccccc2O1)c1ccc2c(c1)OCCO2 (centres unmarked) to CCN(CC(=O)Nc1ccc(NC(C)=O)cc1)C(=O)COc1ccccc1Cc1ccccc1, the “hERG current change (%, negative = inhibition) at 1uM” value falls from 11.8% to 3.12%.

First: O=C(N/C=N/OCc1ccc(Cl)cc1Cl)NOCc1ncc(C(F)(F)F)cc1Cl
Second: O=C(CSc1nnc2c(n1)[nH]c1ccc(F)cc12)NC1CC1
The “hERG current change (%, negative = inhibition) at 1uM” value of the first is higher: 6.69% for the first, 0.818% for the second.

Going from CCOC(=O)CCc1cccc2c1CCC2=O to CCCC1OC2CC3C4CCC5=CC(=O)C=CC5(C)C4C(O)CC3(C)C2(C(=O)O)O1 (centres unmarked), the “hERG current change (%, negative = inhibition) at 1uM” value rises from 3.93% to 9.5%.

For O=S(=O)(Nc1nccs1)c1ccc(Cl)cc1, the “hERG current change (%, negative = inhibition) at 1uM” value was -2.16%.
